Experimental data taken from PubChem BioAssay (NCI).
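Where inhibition never reached the appropriate level, the endpoint shown equals the highest concentration tested. Otherwise, values were interpolated linearly from a five-concentration, 48-hour dose response in 96-well plates. GI50 marks 50% less growth. TGI is the concentration that stops growth completely.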

System: NCI-H322M lung
Test: NCI anticancer screen, dose series, 48 h

Q: How did the GI50 turn out when Cn1cc(-c2cc(N)n3nc(-c4c[nH]c5ccccc45)cc3n2)c2ccccc21 was run?
A: Its GI50 is 2.81 µM.

Q: And the TGI?
A: Its TGI is 10.5 µM.

Q: What does the source list for N#Cc1c(NC(=O)c2ccc(C(F)(F)F)cc2)sc2c1CCC(=O)C2?
A: GI50: 3.18 µM; TGI: 35.2 µM

Q: COc1ccc(Nc2nc(N)n(Cc3cccc(Br)c3)n2)cc1 was tested. Which GI50 did it give?
A: Its GI50 is 34.9 µM.

Q: And the TGI?
A: Its TGI is over 100 µM.

Q: For COc1ccc(C(SCCNCc2cc(N(C)C)ccn2)(c2ccccc2)c2ccccc2)cc1, which GI50 is on record?
A: Its GI50 is 0.753 µM.

Q: And the TGI?
A: The TGI was 15.6 µM.

Q: For O=C1CCC(N2Cc3cc(CC(=O)Nc4ccc(N5CCCCC5)cc4)ccc3C2=O)C(=O)N1 (centres undefined), which GI50 is on record?
A: The GI50 was under 0.0122 µM.

Q: What about the TGI of the same compound?
A: Its TGI is over 100 µM.

Q: Clc1ccc(-c2ccc(OCCCN3CCN(c4ccncc4)CC3)cc2)cc1 was tested. Which GI50 did it give?
A: Its GI50 is 16.6 µM.

Q: What about the TGI of the same compound?
A: The TGI was 34.5 µM.

Q: What does the source list for Cn1cc(-c2cc3nc(-c4c[nH]c5ccccc45)cc(N)n3n2)c2cc(Cl)ccc21?
A: GI50: 2.21 µM; TGI: 6.11 µM
